Reference: the RNAGym collection of RNA variant scans (doi:10.1093/nar/gkz1192)
Read counts are not given, so values of variants with three or more changes are uncertain.

B1: CPEB3 Ribozyme (parent)
chain: UAACAGGGGGCCACAGCAGAAGCGUUCACGUCGCAGCCCCUGUCAGAUUCUGGUGAAUCUGCGAAUUCUGCUGUAUAUCUC

Variants of: B1
Test: self-cleavage, relative activity (ratio to wild type); higher = more cleavage; in vitro, sequencing
In short: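 For each CPEB3 ribozyme variant, relative activity is its cleaved/total read fraction divided by the unmutated ribozyme's. Barcoded error-prone PCR libraries were transcribed by T7 RNA polymerase (5 hours, 37°C) and held in DNase I for 15 min before an EDTA stop, with cleavage occurring throughout. Template-switching reverse transcription and Illumina sequencing were used to read the RNAs. A 5-read minimum applied, and results are the mean of three batches.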

Row | Variant | self-cleavage
1 | UAACAGGAGGCCACAGCAGAAGCGUUCACGUCGCAGCCCCUGUCUGAUCCUGGUGAAUCCGCGUAUUCUGCUGUAUACCUC [G8A A45U U49C U60C A64U U78C] | 0.03
2 | UAACAGGAUGCCACAGCAGAAGCGUUCACGUCGCAGCCCCUGUCAGAUCCUGGUGAAUCUGCGAAUUCUGCUGUAUAUCUC [G8A G9U U49C] | 0.06
3 | UAACAGGAGGCCACAGCAGAAGCGUUCACGUCGCAGCCCCUGUCAGGUUCUAGGGAAUCUGCGAAUCCUGCUGUAUAUAUC [G8A A47G G52A U54G U67C C79A] | 0.09
4 | UAACAGGAGGCCACAGCAGAAGCGUUCACGUCGCAGCCCCUGUCAGAUUCUGGUGAAUAUGCGAAUUCUGCUCUAUAUCUC [G8A C59A G73C] | 0.06
5 | UAACAGGAGGCCACAGCAGAAGCGUUCACGUCGCAGCCACUGUCAGAAACUGGUGAAUCUGCGAAUUCUGCAGUAUAUCUC [G8A C39A U48A U49A U72A] | 0.18
6 | UAACAGGAGGCCACAGCAGAAGCGUUCACGUCGCAGCCCCUGUAAGACUCUGGUGAAUCUGCGAAUUCUGCUGUAUAUCUC [G8A C44A U48C] | 0.06
7 | UAACAGGAGGCCACAGCAGAAGCGUUCACGUCGCAGCCCCUGUCAGGUACUAGGGAAUCUGCGAAUCCUGCUGUAUAUAUC [G8A A47G U49A G52A U54G U67C C79A] | 0.04
8 | UAACAGGAGGCCACAGCAGAAGCGUUCACGUCGCAGCCCCUGUCGGAUUCUGGUGGAUCUGCGAAUCCUGCUGUAUAUCUC [G8A A45G A56G U67C] | 0.2
9 | UAACAGGAGGCCACAGCAGAAGUGUUCACGUCGCAGCCCCUGUCAGAUUCUGGUGAAUCUGAGAAUUCUGCUGUAUAUCCC [G8A C23U C62A U80C] | 0.07
10 | UAACAGGAGGCCACAGCAGAAGGGUUCACGUCGCAGCCCCUGUCAGAUUCUGGAGAGUCUGCGAAUUCUGCUGUAUAUCUC [G8A C23G U54A A57G] | 0.05
11 | UAACAGGAGGCCAUAGCAGGAGCGUUCACGUCGCGGCCCCUGUCAGAUUCUGGUGAAUCUGCGAAUUCUGCUGUAUAUCUC [G8A C14U A20G A35G] | 0.31
12 | UAACAGGAGGCCACAGGAGAAGCGUUCACGUCGCAGCCCCUGUCAGAUUCUGGCGAAUCAGCGAAUUCUGCUGUAUAUCUC [G8A C17G U54C U60A] | 0.08
13 | UAACAGGAGGCCACAGCAGAAGCGUUCACGUCGCAGCCCCUGUCUGAUCCUGGUGAACCUGCGAAUUCAGCUGUAUAUCUC [G8A A45U U49C U58C U69A] | 0.07
14 | UAACAGGAGGCCACAGCAGAAGCGUUCACGUCGCAGCCGCUGUCAGAUUCUGGUGCAUCUGCGGAUUCUGCGGUAUAUCCC [G8A C39G A56C A64G U72G U80C] | 0.05
15 | UAACAGGAGGCCACAGCAGAAGCGUUCACGUCGCAGACACUGUCAGAUUCUGGUGGAUCUGCGAAUUCUGCUGUAUAUCUC [G8A C37A C39A A56G] | 0.06
16 | UAACAGGACGCCACAGCAGAAGCGUCCACGUCGCAGCCCCUGGCAGAUUCUGGUGAAUCUGCGAAUUCCGCUGUACACCUC [G8A G9C U26C U43G U69C U76C U78C] | 0.05
17 | UAACAGGAGGCCAAAGCAGUAGCGUUCACGUCGCAGCCCCAGUCAGAUUCUGGUGAAUCUGCGAAUUCUGCUGUAUAUCUC [G8A C14A A20U U41A] | 0.08

Row | Variant | self-cleavage
18 | UAACAGGAGGCCACAGCAGAAGCGUUCACGUCGCAGCACCUGUCUGAUUCUGGUGAAUCUGCGAAUUCUGCUGUAUAUCUC [G8A C38A A45U] | 0.17
19 | UAACAGGAGGCCACAGCAGAAGCGUUCACGUCGCAGCCCCUGUCAGGUUCUGGUUAAUCUGCGAAUUCUGCUGUAUAUCUC [G8A A47G G55U] | 0.05
20 | UAACAGGAGGGCACAGCAGAAGCGUACACGUGGCAGCCCCUGUCAGAUUCUGGUGAAUCUGCGAAUUCUGCUGUAUAUCUC [G8A C11G U26A C32G] | 0.04
21 | UAACAGGAGGCCACAGCAGAAGCGUUCACGUCGCAGUCCCUGUCAGAUCCUGGUGAAUCUGCGAAUUCUGCUGUAUUUCUC [G8A C37U U49C A77U] | 0.05
22 | UAACAGGAGGCCAUAGCAGAAGCGUUCACGUCGCAGCGCAUGUCAGAUUCUGGUGAGCCUGCGAAUUCUGCUGUAUAUCUC [G8A C14U C38G C40A A57G U58C] | 0.03
23 | UAACAGGAGGCCACAGCAGAAGGGCUCACGUCGCAGCCCCUGUCAGACUCUGGUGAAUCUGCGAAUUCUGCUGUAUAUCUC [G8A C23G U25C U48C] | 0.05
24 | UAACAGGAGGCCACAGCAGAAGCGUUCACGUCGCAGCCGCUGUCAGAUUCUGGUGAAUCUGCGAAUUCUGCUGUCUAUCUC [G8A C39G A75C] | 0.26
25 | UAACAGGAGGCCACAGCAGAAGCGUUCACGUCGCAGCCCCUGUCAGGUUCUGGUGAAUCUGCGAAUACUGCUGUAUAUCUC [G8A A47G U67A] | 0.07
26 | UAACAGGAGGUCACAGUAGAAGCGUUCACGUCGCAGCCCCCGUCAGAUUCUGGUGAAUCUACGUAUUCUGCUGUAUAUCUC [G8A C11U C17U U41C G61A A64U] | 0.05
27 | UAACAGGAGACCACAGCAGAUGCGUCCACGUCGCAGCCCCUGUCAGAUUCUGGUGGAUCUGCGGAUUCUGCUGUAUAUCUC [G8A G10A A21U U26C A56G A64G] | 0.16
28 | UAACAGGAGGUCACAGCAGAAGCGUUCACGUCGCAGCCCCCGUCAGAUACUGGUGAAUCUGCGAAUUCUGCUGUAUAUCUC [G8A C11U U41C U49A] | 0.22
29 | UAACAGGAGGCCACAGCAGAAGCGUUCACGUCGCAGCCCAUGUCAGAUUCUGGUGAAUCUGCGAGUUCUGCAGUAUAUCUC [G8A C40A A65G U72A] | 0.13
30 | UAACAGGAGGCCACAGCAGAAGCGUUCACGUCGCAGCCGCUGUCAGAUUCUGGUGAAUCUGCGGAUUCUGCUGUAUAUCUC [G8A C39G A64G] | 0.2
31 | UAACAGGAGGCCACAGCAGAAGCGUUCACGUCGCAGCCCCUGUCGGAUUCUGGUGAAUCUGCGAAUUCUGCUGUUUAUCCC [G8A A45G A75U U80C] | 0.07
32 | UAACAGGAGCCCACAGCAGAAGCGUUCACGUCGCAGCCCCUGUCAGAUUCUGGUGAAUAUGCGAAUUCUGCUGUGUAUCGC [G8A G10C C59A A75G U80G] | 0.07
33 | UAACAGGAGGCCACAGCAGAAGCGUUCACGUCGCAGCCGCUGUCAGAUUCUGGUGAAUCUGCGAACUCUGCUGUAUAUCUC [G8A C39G U66C] | 0
34 | UAACAGGAUGCCACAGCAGAAGCGCUCACGUCGCAGCCCCUGUCAGAUUCUGGUGAACCUGCGAAUUCUGCCGUAUAUCUC [G8A G9U U25C U58C U72C] | 0.05
